The BET-seq Pho4 binding data (Le et al. 2018)
This is one part of the list. The energies were worked out here from pooled read counts, against the library average; single values are noisy.

Target: T1, Pho4 (S. cerevisiae) (UniProt P07270)
T1 sequence: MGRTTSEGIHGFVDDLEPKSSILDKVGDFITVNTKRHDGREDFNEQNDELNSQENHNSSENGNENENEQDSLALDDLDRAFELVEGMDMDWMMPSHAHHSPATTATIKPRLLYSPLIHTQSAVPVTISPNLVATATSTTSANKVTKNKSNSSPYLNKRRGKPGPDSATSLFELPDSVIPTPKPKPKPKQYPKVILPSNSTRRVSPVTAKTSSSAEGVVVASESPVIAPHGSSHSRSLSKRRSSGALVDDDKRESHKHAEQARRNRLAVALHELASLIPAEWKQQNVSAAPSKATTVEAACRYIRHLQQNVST
Experiment: relative binding free energy (BET-seq); higher = weaker binding
Details: reference: library average

Sequence | relative binding free energy [kcal/mol]
CTCGTCACGTGTTGTT | 0.06
AGGTTCACGTGGGTCT | 0.15
AGAGTCACGTGCGGTG | 0.08
TTCGGCACGTGATTTT | 0.01
AACGTCACGTGGGTAT | 0.07
CTTATCACGTGGTTAT | 0.1
GTAACCACGTGTTGTG | -0.07
AGCTGCACGTGTGTTT | -0.03
TTTGGCACGTGCGATA | -0.03
GAGAACACGTGGAGGT | 0.28
CGGGACACGTGTGGGG | 0.12
TTTATCACGTGATATC | 0.39
TGGCGCACGTGTATAT | -0.13
ACATGCACGTGGTAGG | -0.11
TATCTCACGTGTTGAT | 0.23
GGTCTCACGTGCGGGT | 0.21
GTGGACACGTGGAGCT | -0.07
GTGTTCACGTGAGGCG | 0.49
GTGGTCACGTGTCTTA | 0.02
TGAAGCACGTGGTAGA | 0
AGTCTCACGTGTATAT | 0.2
GTGGGCACGTGATCGG | 0.07
ATATTCACGTGTAAGA | 0.28
GGTGCCACGTGGTCAT | -0.08
ATAAACACGTGGAGGG | -0.01
ATAGGCACGTGGTTCA | -0.28

Sequence | relative binding free energy [kcal/mol]
GTCGGCACGTGATGCG | -0.11
AGAGACACGTGGTGGC | -0.04
TTTTACACGTGGATGT | 0.11
AATTTCACGTGGGTCA | 0.23
GTACTCACGTGTCGGT | 0.24
ATAATCACGTGGAGTT | 0.16
GTGATCACGTGGAGTT | 0.09
TGTAACACGTGACTGT | 0.21
ATCGTCACGTGTTAAA | 0.22
CGGGGCACGTGAGGGT | 0.12
TTATTCACGTGCGGAT | 0.29
GTTACCACGTGTTGTA | -0.08
GTGTACACGTGAAGGC | 0.3
CGTGTCACGTGGGAGG | 0
GATAGCACGTGGGATT | -0.15
GTATGCACGTGGTGCC | -0.04
CTAATCACGTGGGAGG | 0.1
GAAAGCACGTGTGTAT | 0.04
TATATCACGTGAATTG | 0.2
ATTGTCACGTGGTAAG | 0.1
TTTTACACGTGAAGTC | 0.35
GAATGCACGTGTAAGG | 0.14
GTGTTCACGTGTCGTC | 0.29
CAGGGCACGTGCTGGG | -0.12
GAGGGCACGTGAAGTT | 0.22
GAAAACACGTGTTGTG | -0.07

Sequence | relative binding free energy [kcal/mol]
TGGTACACGTGGAATG | 0.2
GTTCACACGTGTTGGG | 0.2
AGTTGCACGTGAAGTT | 0.27
TATTACACGTGTAGGA | 0.14
GTGGCCACGTGTTGGC | -0.02
CAGTTCACGTGTAGTG | 0.2
TGGATCACGTGGGCGG | 0.05
GATGGCACGTGTATGA | 0.01
GTGGGCACGTGGAAAG | 0.23
ATTTACACGTGTACGA | 0.3
TTATACACGTGTTAGG | 0.07
ATTATCACGTGGTCGT | -0.01
TAAGCCACGTGTGGGC | 0.12
GTTGACACGTGCTGTT | 0.03
TGTTGCACGTGGCATA | 0.01
ATTTACACGTGATTAG | 0.12
ATTCGCACGTGTGATG | 0.11
TTTTACACGTGGCGGA | 0.04
CGTTGCACGTGAGAGA | 0.41
AGGTACACGTGAGATG | 0.21
TTGTGCACGTGCCAGA | 0.09
GTTTGCACGTGGAAAG | 0.14
ATTTGCACGTGTTACG | 0.1
AGGACCACGTGTTATG | 0.05
TTTTGCACGTGGGAAC | -0.16
GTATGCACGTGGGGAG | -0.07

Sequence | relative binding free energy [kcal/mol]
GGGCTCACGTGTGCGT | 0.13
GTGTTCACGTGACATG | 0.21
ACCTGCACGTGGTTTG | -0.06
CGTTGCACGTGTGCTT | 0.03
AGGGGCACGTGGGATA | -0.22
CTAGTCACGTGGGAGG | -0.08
TTGTTCACGTGTAATT | 0.42
CTTCTCACGTGATGGT | 0.25
GCGAACACGTGGGTTG | -0.05
CGTATCACGTGTTGAG | 0.08
GATTTCACGTGGTGAC | 0.4
CGGCTCACGTGGGGGA | 0.05
ATTATCACGTGATAAG | 0.31
CGTGCCACGTGATGGA | 0.28
AGGGGCACGTGGATTT | -0.03
GGGCTCACGTGGGATA | 0.43
TGCGTCACGTGAGGAG | 0.28
ATTAGCACGTGTTTAG | -0.02
GTATACACGTGTTATG | 0.1
TGTGGCACGTGGCCGG | -0.19
TTCTCCACGTGTGTGG | 0.04
GTAGGCACGTGATAGG | -0.08
GAAGGCACGTGGTTGC | -0.06
AGAATCACGTGGTAGA | 0.25
GTGCGCACGTGGCTTG | -0.16
TTAGTCACGTGGGAAT | -0.04

Sequence | relative binding free energy [kcal/mol]
TAATACACGTGTTTGA | -0.01
TTCGGCACGTGGGAAT | -0.17
GTGTGCACGTGAGCGC | 0.18
TTGAGCACGTGAGTTC | 0.09
GGATGCACGTGGGCTG | -0.23
TATAGCACGTGTCGGG | -0.1
GGCGGCACGTGGCTTG | -0.16
TGGCGCACGTGCCGGT | -0.15
TAGAACACGTGGTGGA | 0.03
ATGGTCACGTGGAGAA | 0.17
TCTTTCACGTGTAGTG | 0.21
TGTACCACGTGTAAGT | -0.01
AGTGGCACGTGGAGTC | 0.02
GGTTTCACGTGTAGTG | 0.24
TGAAGCACGTGGATGA | -0.13
TTGAGCACGTGGAATT | 0.04
TCAGACACGTGGGTTT | -0.04
TATGGCACGTGTTCTA | -0.18
GTGGTCACGTGTCTTT | 0.1
GGGGTCACGTGGCGGC | 0.01
GCGTGCACGTGTCGTG | -0.1
TTGGGCACGTGTATTG | -0.02
ATGTCCACGTGGTGGA | 0.07
TACGTCACGTGGTATG | -0.07
TACTTCACGTGCAGGG | 0.27
GTTTTCACGTGCGGAA | 0.32

Sequence | relative binding free energy [kcal/mol]
TCTAGCACGTGTTTTT | 0
ACGGGCACGTGGGGCT | -0.19
GGCGGCACGTGCGAGG | -0.23
TTCGTCACGTGGTACG | 0.05
ATTTTCACGTGAAGAG | 0.4
TTTGTCACGTGTTACT | 0.12
TAGAGCACGTGCTGAT | 0.01
ACGGGCACGTGGGTCG | -0.31
ATGTTCACGTGCGTTG | 0.18
CTCATCACGTGGTGGA | 0.2
AAGTGCACGTGATGCG | 0.03
TCTGCCACGTGGTGGA | -0.01
TTGTGCACGTGGTCGT | -0.05
AGGTTCACGTGGAATG | 0.33
CGGTTCACGTGTAGCG | 0.23
GTGAGCACGTGCGGGT | -0.01
ATTTGCACGTGAGATG | 0.2
CTTTTCACGTGGGTTC | 0.28
AAGCGCACGTGAAGGT | 0.21
TTAGCCACGTGGCGTT | -0.2
CTTGGCACGTGGAATG | 0
ATAGACACGTGAGAGG | 0.26
TTTAGCACGTGTTATT | -0.05
GGCGACACGTGCAGGT | 0.16
GGTGGCACGTGTCAGG | -0.01
TGGAGCACGTGTGTTT | -0.06

Sequence | relative binding free energy [kcal/mol]
CTTGTCACGTGAATTT | 0.33
TGGTACACGTGCGGGA | 0.08
TAGGGCACGTGTTACT | -0.07
TGGAGCACGTGTTGCG | -0.19
GTGAACACGTGGCGGG | -0.1
TGAGGCACGTGACGGC | 0
ACGAGCACGTGGGTTT | -0.14
ATTAACACGTGAATGG | 0.26
TGAGGCACGTGATCTT | -0.1
TAGTACACGTGTATGT | 0.07
TTGGGCACGTGGAGAA | -0.13
TTGGTCACGTGTTCGG | 0.19
GAGCGCACGTGAAAGG | 0.32
GATGGCACGTGAGGAT | 0.33
GCAAGCACGTGAGTGG | 0.29
GTATTCACGTGGGTCG | 0.22
GATGGCACGTGGAAGG | 0.07
ATGGTCACGTGAGTTA | 0.45
TAATACACGTGGGGCT | -0.09
AGTTACACGTGAGTAG | 0.3
AACGGCACGTGTGTAT | -0.02
TAGGCCACGTGTGTAA | -0.05
CGTTCCACGTGATGGT | 0.1
AAGTTCACGTGTGGCA | 0.33
TAAGGCACGTGTGGTA | -0.04
ATTAGCACGTGGTAAT | -0.18

Sequence | relative binding free energy [kcal/mol]
GGGGTCACGTGTCGAT | 0.21
AACTGCACGTGGCGTG | -0.09
AAGAGCACGTGGAGGA | -0.18
GTGGACACGTGTAAGT | 0.17
TAATTCACGTGAGAGG | 0.47
CGATGCACGTGTGGGG | 0.03
CCGTGCACGTGGATGG | 0.03
AAATTCACGTGATTTT | 0.19
ATTTACACGTGGGCGT | -0.04
TGGTGCACGTGGAGAC | 0.12
TCAAGCACGTGAGTGG | 0.14
CTTTGCACGTGCTGGG | -0.1
GTTAGCACGTGTTACG | -0.14
AGGGACACGTGAGGGC | 0
TTAGGCACGTGAGTCG | 0.06
CGTTACACGTGAGTAG | 0.2
TGGGGCACGTGAATAG | 0.21
TAGCGCACGTGAGTGG | 0.05
TTATGCACGTGCCTTT | -0.08
TTGTTCACGTGCCGGT | 0.35
CGTAGCACGTGTAATG | 0.1
GGGTACACGTGGTGTA | -0.04
AAGTACACGTGTTTGC | 0.13
TGAGACACGTGAGTCG | 0.25
ATTAGCACGTGGATTT | -0.04
TATTGCACGTGAGTGG | 0.15

Sequence | relative binding free energy [kcal/mol]
AGCGTCACGTGGATTA | 0.13
TGTTTCACGTGGCAAG | 0.16
CAGTTCACGTGGTGGT | 0.18
TCATGCACGTGCTGGT | -0.06
TTTGGCACGTGTTATA | -0.14
GATTGCACGTGTTTCG | 0.23
GGTGCCACGTGTGATG | 0.09
GTTATCACGTGAAAAG | 0.41
ATCGTCACGTGCTTTG | 0.23
GTTGGCACGTGTACGT | 0.14
ATGTCCACGTGAAGTG | 0.28
GCGTTCACGTGATGTG | 0.35
ATGTGCACGTGGGAAA | -0.13
GATATCACGTGGGATT | 0.05
AGTTTCACGTGTCATT | 0.27
TAGTGCACGTGGACGT | 0.07
CGGTACACGTGCTGTG | -0.01
TGGTTCACGTGGGTCG | 0.22
TTTCACACGTGGGCGT | -0.09
CGAGTCACGTGTTTGG | 0.09
GTTGGCACGTGAGCAT | 0.1
GGAGTCACGTGTGTGG | 0.19
